Experimental data from PubChem BioAssay AID1345083 (National Center for Advancing Translational Sciences (NCATS), 2018).
Where “and” joins values, the source holds several entries; their conditions need not be identical. Equal entries are not always repeated. In all, about 94,000 compounds went through this assay and about 6,200 (6.6%) were called active. Inconclusive means that the source gave no clear call. Such entries were picked first, then a sample of the others. Calls follow the shape of the dose curve; as a rule, active = well fitted inhibition curve with a large enough effect; inconclusive = small, poorly fitted or top-dose-only effect; inactive = flat fitted curve, though single readings scatter. Where the call is inconclusive, the potency comes from a doubtful curve fit.

Experiment: Cytotoxic Profiling in HEK 293 Cell Line of Diverse Libraries Using Quantitative High-Throughput Screening; also: nearly all actives have a fitted effect of over 60% in size
Details: HEK 293 viability, ATP luminescence (CellTiter-Glo), 48-72 h; activity change, negative = cytotoxicity: at 115 µM (top of the series) unless noted; series mostly up to 115 µM
Procedure, shortened: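 Pintool-delivered compounds were incubated with HEK 293 cells (250 cells/well) at 37 degree Celsius for 48 or 72 hr. ATP-dependent luminescence (CellTiter-Glo) then reported remaining viable cells.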
% is scaled to controls: 0 for no effect and ±100 for the full control effect; potency is read from the fitted curve at half-maximal effect; tags tell the direction and shape of the fitted curve.

| SMILES | Potency | activity change, negative = cytotoxicity | outcome |
| --- | --- | --- | --- |
| Cc1cn2nc(C(=O)NCc3ccc(F)cc3)cc2c(N2CCSCC2)n1 | inconclusive: 89.1 µM [inhibitor, single point] |  |  |
| CN(C)C(=O)Cc1ccccc1-n1ccnc1-c1cc2n(n1)CCCNC2 |  | inactive: -3.31% |  |
| Cc1nnc2ccc(N3CCC(NC(=O)c4cccc(C(F)(F)F)c4)CC3)nn12 | inconclusive: 89.1 µM [inhibitor, partial curve, poor fit] |  |  |
| COc1ccc(Nc2ccnc(N3CCCC3C(=O)NCC(F)F)n2)cc1 (configuration not stated) |  | inactive: -24.2% |  |
| COc1cc(CN2CCN(c3ncc(F)cn3)CC2)cc(Cl)c1OC | inconclusive: 50.1 µM [inhibitor, partial curve, poor fit] |  |  |
| CC1=C[C@@H](CN(C)CCO)[C@H](C(C)C)C[C@H]1Cc1nnc(C)o1 |  |  | inactive [at 172 µM] |
| COc1cccc(NC(=O)[C@@H]2C[C@@H](c3cccc(C(F)(F)F)c3)N(Cc3cnn(C)c3)C2)c1 | inconclusive: 79.4 µM [inhibitor, partial curve] |  |  |
| CN(C)C[C@@H]1CN(Cc2ccncc2)C[C@H]1NC(=O)c1cc(F)cc(F)c1 | inconclusive: 50.1 µM [inhibitor, partial curve, poor fit] |  |  |
| CCCCCNC(=O)c1ccccc1-c1ccc(OC)nn1 |  | inactive: -16.2% [at 172 µM] |  |
| COc1ccc(-c2nnc([C@H]3CCN(C(=O)c4ccc(OC)c(OC)c4)C3)o2)cc1 | inconclusive: 112 µM [inhibitor, partial curve, poor fit] |  |  |
| COc1ccc2[nH]c3c(c2c1)CCNC31CCN(C(=O)c2nccc3ccccc23)CC1 | inconclusive: 12.6 µM [inhibitor, partial curve, poor fit] |  |  |
| CC1(O)CCCN(Cc2cc3cc4c(cc3nc2-c2ccc(Cl)cc2)OCO4)C1 (configuration not stated) | inconclusive: 79.4 µM [inhibitor, partial curve, poor fit] |  |  |
| O=C(NCc1cccs1)c1ccc2oc(-c3ccccn3)nc2c1 | inconclusive: 56.2 µM [inhibitor, partial curve, poor fit] |  |  |
| OC[C@H]1CCN(c2ccnc3c(C(F)(F)F)cccc23)C[C@H]1O | inconclusive: 89.1 µM [inhibitor, single point] |  |  |
| O=C(C1CCCC1)N1CC2(CCCN(CC3CC3)C2)Cc2ccccc21 (configuration not stated) | inconclusive: 89.1 µM [inhibitor, single point] |  |  |
| CN(C/C=C/c1ccccc1)C(=O)C1CCC(=O)N(Cc2cccc(F)c2)C1 (configuration not stated) | inconclusive: 79.4 µM [inhibitor, partial curve, poor fit] |  |  |
| F[C@@H]1CN(Cc2cnc3ccccc3c2)C[C@@H]1OCc1nc2ccccc2[nH]1 | inconclusive: 100 µM [inhibitor, partial curve, poor fit] |  |  |
| COc1ccccc1N1CCN(C(=O)Cn2ccn3nc4c(c3c2=O)CCCCC4)CC1 | inconclusive: 100 µM [inhibitor, single point] |  |  |
| O=C(c1ccncc1)N1CCC(N2C(=O)C(OCC3CC3)C23CCCCC3)CC1 (configuration not stated) |  | inactive: -18.4% |  |
| Cc1nc2scc(CC(=O)NC3CC3)n2c(=O)c1-c1cc(C)n(-c2ccc(C(C)C)cc2)n1 | inconclusive: 100 µM [inhibitor, partial curve, poor fit] |  |  |
| COc1ccc(CC(=O)NC2CCCN(c3ccc4nnc(C)n4n3)C2)cc1 (configuration not stated) |  | inactive: 4.52% |  |
| COc1ccc(C(=O)N2CCOCC3(CN(Cc4ccccc4)C3)C2)c(OC)n1 | active: 44.7 µM |  |  |
| O=C(c1ccc(F)cc1)N1CC(Oc2cccc(-c3nc(-c4ccccc4)no3)c2)C1 | inconclusive: 50.1 µM [inhibitor, partial curve, poor fit] |  |  |

| SMILES | Potency | activity change, negative = cytotoxicity | outcome |
| --- | --- | --- | --- |
| Cc1cccc(-n2nc(C)c(CCC(=O)N3CCSCC3)c2Oc2ccccc2)c1 | active: 44.7 µM |  |  |
| Cc1ccc(-c2cccc(CN3CCCC3C(=O)NCc3cccc(Cl)c3)c2)cc1Cl (configuration not stated) | active: 39.8 µM |  |  |
| COc1cc(SC)ccc1C(=O)N[C@H]1CCN2C(=O)N(c3ccc(Cl)cc3)C(=O)[C@@H]2C1 |  | inactive: -30.8% |  |
| COc1ccccc1Nc1ccnc(N2CCCC2C(=O)NCC(F)F)n1 (configuration not stated) |  | inactive: -23.5% |  |
| COc1ccc(OC)c(S(=O)(=O)N2CCn3c(nn(CC4CC4)c3=O)C2)c1 |  | inactive: 14% |  |
| COc1cccc(C(=O)N2CCCC2C(=O)N2CCCC2c2nc3ccncc3[nH]2)c1 (configuration not stated) |  | inactive: -3.72% |  |
| COc1ccc(C(=O)N2CCC(N3C(=O)C(O)C34CCCCC4)CC2)c(OC)n1 (configuration not stated) |  | inactive: -10.4% |  |
| c1coc(-c2nc3nccc(-c4cc5ccccc5o4)n3n2)c1 | inconclusive: 50.1 µM [inhibitor, partial curve, poor fit] |  |  |
| COc1cccc(N2C(=O)NC(=NC3CCCCC3)C23CCN(C(=O)c2ccc(C(F)(F)F)cc2)C3)c1 (configuration not stated) |  |  | inactive |
| O=C(Cn1cccc1-c1nc(-c2ccc3c(c2)OCO3)no1)N1CCCc2ccccc21 | inconclusive: 89.1 µM [inhibitor, single point] |  |  |
| CCCCOc1ccc(C(=O)N2CCC(Cc3nc(-c4cnccn4)no3)CC2)cc1 | inconclusive: 44.7 µM [inhibitor, partial curve, poor fit] |  |  |
| O=C(c1ccsc1)N1CCCC2(C1)Nc1cccnc1NC2=NC1CCCC1 (configuration not stated) |  | inactive: -5.88% |  |
| CCN1c2cc(C(=O)Nc3cccc(F)c3)ccc2C(=O)N2CCCCC21 (configuration not stated) | inconclusive: 44.7 µM [inhibitor, partial curve, poor fit] |  |  |
| CN(Cc1ccc(F)cc1)Cc1cnc(S(C)(=O)=O)n1CCCc1ccccc1 | active: 20 µM |  |  |
| COc1ccc(CN2CCOC[C@H]2c2ncc(-c3ccc(S(C)(=O)=O)cc3)[nH]2)cc1 | inconclusive: 126 µM [inhibitor, single point] |  |  |
| O=C(c1ccc(Cl)cc1)N1CC2(CCN(Cc3ccncc3)C2)OCc2ccccc21 (configuration not stated) | inconclusive: 79.4 µM [inhibitor, partial curve, poor fit] |  |  |
| Cc1ccc(-c2cn3cc(C(=O)NC4CCCCC4)nc3s2)cc1 |  | inactive: -17.8% |  |
| Cn1nc(OC(C)(C)C(=O)NCCc2ccccc2)c2cc(CN3CCCC3)ccc21 | inconclusive: 126 µM [inhibitor, single point] |  |  |
| COc1ccc(C(=O)N2CCCN(c3cc(-c4ccc(F)cc4)[nH]n3)CC2)cc1OC | inconclusive: 44.7 µM [inhibitor, partial curve, poor fit] |  |  |
| COc1ccc(C(=O)N2CCOC(CCCC(C)C)C2)o1 (configuration not stated) | inconclusive: 79.4 µM [inhibitor, partial curve] |  |  |
| CC(C)Cc1ccc(S(=O)(=O)N(C)CC2CCOCC2)cc1 | inconclusive: 56.2 µM [inhibitor, partial curve, poor fit] |  |  |
| Nc1nc(NCCCc2ccco2)cc(C2CC(O)C2)n1 (configuration not stated) | inconclusive: 15.8 µM [inhibitor, full curve, poor fit] |  |  |
| COc1cc(F)ccc1-c1nccc2c(=O)cc(N3CCOCC3)oc12 |  | inactive: -6.44% [at 172 µM] |  |

| SMILES | Potency | activity change, negative = cytotoxicity | outcome |
| --- | --- | --- | --- |
| Cc1[nH]cnc1CSCCn1ccnc1-c1nccn1C |  |  | inactive |
| COCCC1(NC(=O)c2ccccc2)CCN(Cc2ccc(F)cc2F)CC1 | inconclusive: 89.1 µM [inhibitor, single point] |  |  |
| COc1cccc(-c2nc3cnccn3c2NCCC(=O)Nc2cccc(Cl)c2)c1 | inconclusive: 50.1 µM [inhibitor, partial curve, poor fit] |  |  |
| O=C1NC2(Cc3ccccc31)CN(Cc1ccc(C(F)(F)F)cc1)C2 | inconclusive: 89.1 µM [inhibitor, single point] |  |  |
| CCCS(=O)(=O)N1CCC(Cc2nncn2-c2ccccc2)CC1 |  |  | inactive |
| COc1ccc(CCNC(=O)c2ccc3nnc(-c4cc(C(F)(F)F)cc(C(F)(F)F)c4)n3c2)cc1 | inconclusive: 79.4 µM [inhibitor, partial curve, poor fit] |  |  |
| CNC(=O)[C@H]1C[C@H](Oc2ccccc2)CN1S(=O)(=O)c1ccc(OC)cc1 |  | inactive: -1.6% |  |
| CN(c1ccccc1)c1cc(=O)c2ccnc(N3CCOCC3)c2o1 | inconclusive: 112 µM [inhibitor, single point] |  |  |
| O=C(NC1CC1)[C@@H]1CN(Cc2c(F)cccc2Cl)C[C@H]1CO |  | inactive: -19% |  |
| O=C(c1ccccc1F)N1CCC(N2CC3(CCCC3)C2c2ccccc2)CC1 (configuration not stated) | inconclusive: 56.2 µM [inhibitor, partial curve, poor fit] |  |  |
| c1coc(CNC2(Cc3cc(CN4CCOCC4)on3)COC2)c1 |  | inactive: -5.18% [at 172 µM] |  |
| O=C(c1nccc2ccccc12)N1CCC(Cc2nc(C3CC3)n[nH]2)C1 (configuration not stated) |  | inactive: -15.7% |  |
| COc1ccc(-c2ccc3ncc(Nc4ccccc4)n3n2)cc1OC | active: 35.5 µM |  |  |
| CN1CCC(NCC2(COc3ccc(C(F)(F)F)cn3)C[C@@H](O)[C@@H](O)C2)CC1 (some centres not stated) |  | inactive: -20.7% |  |
| O=C(CCc1ccccc1)N1CCC[C@H]1c1nc(-c2ccccc2)no1 | inconclusive: 56.2 µM [inhibitor, partial curve, poor fit] |  |  |
| COc1ccc(C(=O)NC2CCN(C(=O)c3ccc(-c4ccccc4OC)cc3)CC2)cc1 | inconclusive: 89.1 µM [inhibitor, single point] and inconclusive: 50.1 µM [inhibitor, partial curve, poor fit] |  |  |
| CCCN(C)c1nccnc1OC1CCN(C(=O)c2ccc(OC)cc2)C1 (configuration not stated) | active: 44.7 µM |  |  |
| Cc1cc(C)n(CCC(=O)N2CCC(Cc3noc(C4CC4)n3)C2)n1 (configuration not stated) | inconclusive: 70.8 µM [inhibitor, single point] |  |  |
| Cc1c(C(C)NC(=O)CCN2CCCCCC2=O)cnn1-c1cccc(F)c1 (configuration not stated) |  | inactive: -23.5% |  |
| O=[S+]1([O-])NC2(CCN(Cc3ccc(C(F)(F)F)cc3)C2)CNc2ccccc21 (configuration not stated) | active: 44.7 µM |  |  |
| Fc1cccc(-c2cnc(Nc3ccc(N4CCOCC4)cc3)c3c2CCO3)c1 | inconclusive: 89.1 µM [inhibitor, partial curve, poor fit] |  |  |
